Our source for the cytotoxicity call and growth inhibition call values is the antibiotic and cytotoxicity screens of Wong et al. (2023).

One assay concerns HSkMC. In words: cytotoxicity call (relative viability < 0.9). The conditions noted are these: 10 µM.
A further assay relates to HepG2. Description: cytotoxicity call (relative viability < 0.9). The conditions noted are these: 10 µM.
The subject of another assay is S. aureus RN4220. Description: growth inhibition call (relative growth <= 0.2). The following applies: 50 µM.

This is one part of the list.

For `C[C@@H]1CN([C@H](C)CO)C(=O)c2cc(NC(=O)C3CCCCC3)ccc2O[C@@H]1CN(C)Cc1ccc(-c2ccccc2)cc1`, the cytotoxicity call with HSkMC is “inactive”. Further, in the assay on HepG2, the cytotoxicity call is “active”. In addition, the growth inhibition call in the assay with S. aureus RN4220 is “inactive”.
In the case of `C[C@@H]1CN([C@H](C)CO)C(=O)CCCn2cc(nn2)CO[C@H]1CN(C)C(=O)Nc1ccc(C(C)(C)C)cc1`, the cytotoxicity call in the assay with HSkMC and with HepG2 was “inactive” each time. In the assay on S. aureus RN4220, the growth inhibition call was “inactive”.
Take `C[C@@H]1CCCCO[C@@H](CN(C)C(=O)Nc2ccc(C(F)(F)F)cc2)[C@@H](C)CN([C@H](C)CO)C(=O)c2cc(NC(=O)Cc3ccccc3)ccc2O1`: the cytotoxicity call in the assay with HSkMC and in the assay on HepG2 was “inactive” each time. Also, the growth inhibition call in the assay on S. aureus RN4220 was “inactive”.
For `COc1cc2c(cc1OC)C1Cc3ccc(OC)c(OC)c3CN1CC2` (configuration not stated), the cytotoxicity call in the assay on HSkMC and in the assay with HepG2 was “inactive” in each case. In addition, in the assay with S. aureus RN4220, the growth inhibition call is “inactive”.
As to `CCOc1ccc(-n2c([C@@H](C)N(Cc3cccnc3)C(=O)Cc3ccc(F)c(C(F)(F)F)c3)nc3ncccc3c2=O)cc1`, the cytotoxicity call in the assay on HSkMC and in the assay with HepG2 was “inactive” in each case. In addition, the growth inhibition call in the assay on S. aureus RN4220 was “inactive”.
Turning to `C[C@H]1CN([C@@H](C)CO)C(=O)c2cc(NS(=O)(=O)c3cn(C)cn3)ccc2O[C@@H]1CN(C)CC1CC1`, the cytotoxicity call with HSkMC and in the assay on HepG2 was “inactive” throughout. Besides, the growth inhibition call in the assay on S. aureus RN4220 is “inactive”.
Consider `C[C@H]1CN([C@@H](C)CO)C(=O)c2cccc(NC(=O)Nc3ccccc3)c2O[C@H]1CN(C)Cc1ccc(Cl)c(Cl)c1`, for which the cytotoxicity call in the assay on HSkMC and in the assay on HepG2 was “inactive” in each case. Further, the growth inhibition call in the assay with S. aureus RN4220 was “inactive”.
For the compound `COc1cccc(C#Cc2ccc3c(c2)O[C@H](CN(C)C(=O)CN2CCOCC2)[C@H](C)CN([C@H](C)CO)S3(=O)=O)c1`, the cytotoxicity call with HSkMC and in the assay on HepG2 was “inactive” each time. Besides, the growth inhibition call in the assay on S. aureus RN4220 is “inactive”.
For the compound `NC(=O)c1cc(S(N)(=O)=O)ccc1Cl`, the cytotoxicity call with HSkMC and in the assay on HepG2 was “inactive” in each case. Also, the growth inhibition call in the assay on S. aureus RN4220 was “inactive”.
As for `C[C@@H]1CCCCO[C@@H](CN(C)C(=O)CCC(F)(F)F)[C@@H](C)CN([C@H](C)CO)C(=O)c2cc(NS(=O)(=O)c3ccccc3)ccc2O1`, the cytotoxicity call in the assay on HSkMC and in the assay on HepG2 was “inactive” each time. For the same compound, the growth inhibition call with S. aureus RN4220 was “inactive”.
As for `C[C@@H](O)[C@@H](O)[C@@H](O)C/C=N/NC(=O)c1ccccn1`, the cytotoxicity call with HSkMC and with HepG2 was “inactive” throughout. The growth inhibition call in the assay with S. aureus RN4220 was “inactive”.
`COc1ccc(S(=O)(=O)N[C@@H]2C=C[C@H](CC(=O)N3CCN(c4ccccc4)CC3)O[C@@H]2CO)cc1`: the cytotoxicity call in the assay on HSkMC and with HepG2 was “inactive” each time. Moreover, in the assay on S. aureus RN4220, the growth inhibition call was “inactive”.
Turning to `C[C@@H]1CN([C@@H](C)CO)C(=O)c2cccc(NC(=O)Nc3cccc4ccccc34)c2O[C@H]1CN(C)CC1CC1`, the cytotoxicity call in the assay on HSkMC and in the assay on HepG2 was “inactive” throughout. Moreover, in the assay with S. aureus RN4220, the growth inhibition call was “inactive”.
For the compound `C[C@@H]1CN([C@H](C)CO)C(=O)Cc2cc(NC(=O)Nc3ccccc3)ccc2O[C@@H]1CN(C)Cc1ccc(Oc2ccccc2)cc1`, the cytotoxicity call with HSkMC and with HepG2 was “active” in each case. Also, the growth inhibition call in the assay with S. aureus RN4220 was “inactive”.
Turning to `O=C(C[C@H]1C[C@H]2c3cc(NC(=O)Nc4ccc(C(F)(F)F)cc4)ccc3O[C@H]2[C@@H](CO)O1)NCc1ccc(Cl)cc1`, the cytotoxicity call in the assay on HSkMC and with HepG2 was “inactive” in each case. The growth inhibition call with S. aureus RN4220 is “inactive”.
As to `C[C@@H]1CN([C@@H](C)CO)S(=O)(=O)c2ccc(C#Cc3ccncc3)cc2O[C@@H]1CN(C)S(=O)(=O)c1ccccc1`, in the assay on HSkMC, the cytotoxicity call was “inactive”. Moreover, the cytotoxicity call with HepG2 is “active”. Moreover, the growth inhibition call in the assay on S. aureus RN4220 is “inactive”.
In the case of `CO[C@H]1CN(C)C(=O)c2cc(NS(C)(=O)=O)ccc2OC[C@@H](C)N(C(=O)C2CCCCC2)C[C@@H]1C`, the cytotoxicity call in the assay with HSkMC and in the assay on HepG2 was “inactive” in each case. For the same compound, the growth inhibition call in the assay on S. aureus RN4220 is “inactive”.
With `C[C@H]1CN([C@@H](C)CO)C(=O)c2cccc(NS(=O)(=O)c3ccc(F)cc3)c2O[C@H]1CN(C)C(=O)Nc1cccc2ccccc12`, the cytotoxicity call in the assay on HSkMC and in the assay on HepG2 was “inactive” in each case. For the same compound, in the assay with S. aureus RN4220, the growth inhibition call was “inactive”.
On to `O=C(CN1CCOCC1)NCC[C@H]1CC[C@@H](NS(=O)(=O)c2ccc(Cl)cc2)[C@@H](CO)O1`, for which the cytotoxicity call in the assay with HSkMC and with HepG2 was “inactive” throughout. The growth inhibition call in the assay on S. aureus RN4220 is “inactive”.
With `C[C@H](CO)N1C[C@H](C)[C@H](CN(C)S(=O)(=O)c2ccccc2)Oc2ccc(NC(=O)CCN3CCOCC3)cc2C1=O`, the cytotoxicity call with HSkMC and with HepG2 was “inactive” throughout. Moreover, the growth inhibition call in the assay on S. aureus RN4220 was “inactive”.
Regarding `C[C@H](O)C#Cc1cnc2c(c1)C(=O)N([C@@H](C)CO)C[C@@H](C)[C@@H](CN(C)C(=O)Nc1ccc(C(F)(F)F)cc1)O2`, the cytotoxicity call in the assay on HSkMC and in the assay with HepG2 was “inactive” each time. The growth inhibition call in the assay with S. aureus RN4220 is “inactive”.
For `COc1ccc(NC(=O)N(C)C[C@@H]2OCCCC[C@@H](C)Oc3ccc(NS(=O)(=O)c4cccs4)cc3C(=O)N([C@@H](C)CO)C[C@H]2C)cc1`, the cytotoxicity call in the assay on HSkMC and in the assay with HepG2 was “inactive” in each case. Further, the growth inhibition call in the assay with S. aureus RN4220 was “inactive”.
With `C[C@H]1CN([C@@H](C)CO)C(=O)c2cccc(NC(=O)NC3CCCCC3)c2O[C@H]1CN(C)C(=O)Nc1ccc(C(F)(F)F)cc1`, the cytotoxicity call in the assay with HSkMC and in the assay with HepG2 was “active” each time. Besides, in the assay with S. aureus RN4220, the growth inhibition call is “inactive”.
As for `Cn1cnc(S(=O)(=O)N[C@@H]2CC[C@@H](CC(=O)N3CCN(c4ccccc4)CC3)O[C@@H]2CO)c1`, the cytotoxicity call in the assay with HSkMC and in the assay on HepG2 was “inactive” throughout. Further, the growth inhibition call with S. aureus RN4220 was “inactive”.
As for `CN1C[C@@H](N)CC1=O`, the cytotoxicity call in the assay with HSkMC and in the assay with HepG2 was “inactive” in each case. In addition, the growth inhibition call with S. aureus RN4220 is “inactive”.
Consider `C[C@@H]1CN([C@H](C)CO)C(=O)Cc2cc(NS(=O)(=O)c3cn(C)cn3)ccc2O[C@@H]1CN(C)Cc1ccccc1`, for which the cytotoxicity call in the assay with HSkMC and in the assay with HepG2 was “inactive” throughout. Further, in the assay on S. aureus RN4220, the growth inhibition call is “inactive”.
As to `O=C(Nc1nnn[nH]1)c1cncc(N2CCCC2)n1`, the cytotoxicity call in the assay on HSkMC and in the assay with HepG2 was “inactive” throughout. The growth inhibition call with S. aureus RN4220 was “inactive”.
Consider `C[C@@H]1CN([C@H](C)CO)C(=O)c2cccc(NC(=O)Nc3ccccc3)c2O[C@H]1CN(C)Cc1ccc(Cl)c(Cl)c1`, for which the cytotoxicity call in the assay on HSkMC (human skeletal muscle cells) and in the assay with HepG2 was “inactive” throughout. Besides, the growth inhibition call in the assay with S. aureus RN4220 is “inactive”.
With `O=C1OC2(c3ccccc31)c1cc(I)c(O)c(I)c1Oc1c2cc(I)c(O)c1I`, the cytotoxicity call with HSkMC and in the assay with HepG2 was “active” throughout. Besides, the growth inhibition call in the assay with S. aureus RN4220 is “active”.
